Laboratory results from PubChem BioAssay AID651820 (National Center for Advancing Translational Sciences (NCATS), 2012).
Hit rate of the full screen: of about 340,000 compounds, about 12,000 (3.5%) were called active. Inconclusive results, whose numbers are uncertain, are shown with a selection of clear calls. The call rests on the fitted dose curve; in most records, active means well fitted inhibition curve with a large enough effect; inconclusive means small, poorly fitted or top-dose-only effect, or another doubt; inactive means no such curve, though single readings can be large or run the other way. Potencies of inconclusive entries are left out as doubtful fits.

assay: qHTS Assay for Inhibitors of Hepatitis C Virus (HCV); conditions: Huh7.5.1 HCVcc-Cre (HCVcc is cell-culture hepatitis C virus) infection, luciferase reporter, 44 h; activity change, negative = inhibition: at 41.8 µM (top of the series) unless noted
Summary of the method: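 1,000 cells/well; 4 h culture; + compound; + HCVcc-Cre (~0.5 moi); 44 h; luciferase substrate, RT 15 min; read 15 sec.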
On the % scale 0 is the no-effect control and ±100 the full control effect; potency means the concentration at half of the fitted maximal effect; tags describe the fitted curve by direction and shape.

Question: Which Potency does the source give for Cc1cccc(CCN2C(Nc3ccccc3)=NC[C@@H]2CC(C)C)c1 here?
Answer: The Potency was active: 2.82 µM.

Question: Which Potency does the source give for CCn1cc(Br)c(C(=O)Nc2cccc(Cl)c2)n1 here?
Answer: The Potency was inconclusive [inhibitor, single point].

Question: Which Potency does the source give for Cc1csc(NC(=O)c2sc3nc(-c4cccs4)ccc3c2N)n1 here?
Answer: The Potency was inconclusive [inhibitor, full curve, poor fit].

Question: With O=Cc1c(C(=O)O)n(Cc2ccccc2Cl)c2ccccc12 as the compound, how does the Potency read?
Answer: Its Potency is “inactive”.

Question: Which Potency does the source give for O=C(COc1ccc(-n2cnnn2)cc1)Nc1cc(Cl)cc(Cl)c1 here?
Answer: Its Potency is inconclusive [inhibitor, partial curve].

Question: For Cc1cc2n(n1)C(c1cccs1)Nc1ccccc1-2 (stereo not given), which Potency is on record?
Answer: Its Potency is active: 2.82 µM.

Question: For Cc1cc(=O)oc2c3c(cc(OCC(=O)NCCN4CCOCC4)c12)OC(C)(C)CC3, which Potency is on record?
Answer: The Potency was inconclusive [inhibitor, partial curve].

Question: Which Potency does the source give for Cc1ccc(CN(C(=O)Cn2nnc3ccccc32)C(C(=O)NCc2ccco2)c2ccc(C)o2)cc1 (stereo not given) here?
Answer: The Potency was inconclusive [inhibitor, partial curve].

Question: With Cn1c(N)c(C(=O)CSc2nc3ccccc3c(=O)n2Cc2ccccc2)c(=O)n(C)c1=O as the compound, how does the Potency read?
Answer: The Potency was inconclusive [inhibitor, single point].

Question: For Cc1ccc(C(=O)Nc2cccc(S(=O)(=O)N(C)c3ccccc3)c2)o1, which Potency is on record?
Answer: Its Potency is inconclusive [inhibitor, single point].

Question: For O=C(NCc1ccco1)c1ccc2ccccc2n1, which Potency is on record?
Answer: The Potency was “inactive”.

Question: With CCN(C(=O)C1=COCCO1)c1nc2c(C)cccc2s1 as the compound, how does the activity change, negative = inhibition read?
Answer: Its activity change, negative = inhibition is inactive: -11.3% [at 8.37 µM].

Question: Which Potency does the source give for Cc1sc(NC(=O)/C=C/c2ccco2)c(C(=O)OC(C)C)c1C here?
Answer: Its Potency is inconclusive [inhibitor, full curve].

Question: With COc1cccc2c1C(=O)C=C(C)C2=O as the compound, how does the Potency read?
Answer: Its Potency is inconclusive [inhibitor, single point].

Question: With COc1cccc(C(=O)Nc2nnc(-c3ccc(OC)cc3OC)s2)c1 as the compound, how does the Potency read?
Answer: Its Potency is active: 10 µM.

Question: For c1ccc(C[C@H]2CNCCN2CCC23CC4CC(CC(C4)C2)C3)cc1, which Potency is on record?
Answer: The Potency was inconclusive [inhibitor, single point].

Question: Which Potency does the source give for CCc1ccc(S(=O)(=O)Nc2ccc(-c3nc4cccnc4s3)cc2)s1 here?
Answer: The Potency was inconclusive [inhibitor, full curve, poor fit].

Question: For O=[N+]([O-])c1ccc(N2CCNCC2)cc1N1CCCCC1, which Potency is on record?
Answer: The Potency was active: 10 µM.

Question: With Cc1ccccc1OCCCN1C(=O)C(=O)c2cccc(C)c21 as the compound, how does the Potency read?
Answer: Its Potency is inconclusive [inhibitor, partial curve].

Question: For COc1ccc(OC)c(NC(=O)CN(Cc2ccc(F)cc2)C2CCCCC2)c1, which Potency is on record?
Answer: The Potency was inconclusive [inhibitor, partial curve].

Question: With COc1ccccc1NS(=O)(=O)c1ccc(N/N=C/c2c(C)nn(-c3ccccc3)c2N2CCCC2)c([N+](=O)[O-])c1 as the compound, how does the Potency read?
Answer: The Potency was inconclusive [inhibitor, partial curve].

Question: With COCCOc1ccc(C(F)(F)F)cc1NC(=O)c1ccccc1F as the compound, how does the Potency read?
Answer: The Potency was inconclusive [inhibitor, single point].

Question: For CCN(c1ccccc1)S(=O)(=O)c1ccc(C(=O)Nc2nnc(C3CC3)o2)cc1, which Potency is on record?
Answer: Its Potency is inconclusive [inhibitor, single point].

Question: For CC(CC(=O)O)C(=O)c1ccc(Cl)c([N+](=O)[O-])c1 (stereo not given), which Potency is on record?
Answer: The Potency was inconclusive [inhibitor, single point].

Question: For CC(=O)c1ccc(NC(=O)Nc2cccc(Cl)c2)cc1, which Potency is on record?
Answer: The Potency was “inactive”.

Question: Which Potency does the source give for N=c1sccn1CC(=O)Nc1cccc(S(N)(=O)=O)c1 here?
Answer: Its Potency is “inactive”.

Question: For Cc1cc(C)c2nc(N3CCCN(C(=O)c4cnccn4)CC3)c(C#N)cc2c1, which Potency is on record?
Answer: The Potency was inconclusive [inhibitor, partial curve].

Question: For COc1ccc(OCC(=O)OCC(=O)NC2CCCC2)cc1, which Potency is on record?
Answer: The Potency was “inactive”.

Question: For COC(=O)C1=C(C)Nc2nc3ccccc3n2C1c1cc(OC)c(OC)c(OC)c1 (stereo not given), which Potency is on record?
Answer: Its Potency is “inactive”.

Question: For CC(C)NC(=O)NC(=O)CSc1ccc(S(=O)(=O)N2CCCC2)cn1, which Potency is on record?
Answer: Its Potency is “inactive”.

Question: For Cc1ncc(CO)c(/C=N/NC(=O)c2cc3c(s2)CCCC3)c1O, which Potency is on record?
Answer: Its Potency is active: 7.94 µM.

Question: Which Potency does the source give for COc1ccc(N2CCN(CCCNC(=O)Nc3ccccc3)CC2)cc1 here?
Answer: Its Potency is inconclusive [inhibitor, single point].

Question: Which Potency does the source give for COc1ccc(OC)c(S(=O)(=O)Nc2ccccc2C(=O)N2CCCCC2)c1 here?
Answer: Its Potency is inconclusive [inhibitor, partial curve, poor fit].

Question: With Cc1cc(C)n(-c2nc(NC(C)(C)C)nc(NC(C)(C)C)n2)n1 as the compound, how does the Potency read?
Answer: The Potency was inconclusive [inhibitor, partial curve].

Question: Which Potency does the source give for NC(N)=NCCCS(=O)(=O)Nc1ccc(Nc2c3ccccc3nc3cc([N+](=O)[O-])ccc23)cc1 here?
Answer: Its Potency is inconclusive [inhibitor, full curve, poor fit].

Question: Which Potency does the source give for COc1cccc(/C=N/NC(=O)c2ccc(N3CCCC3=O)cc2)c1 here?
Answer: The Potency was inconclusive [inhibitor, single point].

Question: For O=C(NCC(c1ccco1)N1CCCC1)c1ccc(-n2cccn2)cc1 (stereo not given), which Potency is on record?
Answer: The Potency was inconclusive [inhibitor, partial curve].

Question: Which Potency does the source give for Cc1nnc(NC(=O)CSc2ncn(-c3ccccc3)n2)s1 here?
Answer: Its Potency is “inactive”.

Question: With CCOC(=O)c1c(-c2ccccc2)csc1NC(=O)CSc1ccccc1 as the compound, how does the Potency read?
Answer: Its Potency is “inactive”.

Question: Which Potency does the source give for Cc1ccc(CNC(=O)CSc2ncc(C(=O)Nc3ccccc3)c(=O)n2C)cc1 here?
Answer: The Potency was inconclusive [inhibitor, partial curve, poor fit].

Question: For Cc1ccc(S(=O)(=O)N2CCOCC2)cc1C(=O)NCCN1C(=O)S/C(=C\c2ccccc2Cl)C1=O, which Potency is on record?
Answer: The Potency was active: 12.6 µM.

Question: Which Potency does the source give for Cc1ccc(S(=O)(=O)N2CCN(C(=O)CSc3nc(N)cc(=O)[nH]3)CC2)c(C)c1 here?
Answer: Its Potency is “inactive”.

Question: With Cc1cccc(-c2cc(C(=O)N3CCCc4ccccc43)c3ccccc3n2)c1 as the compound, how does the Potency read?
Answer: The Potency was “inactive”.

Question: For NC(=O)c1ccc(NC(=O)COC(=O)c2cc([N+](=O)[O-])ccc2N2CCOCC2)cc1, which Potency is on record?
Answer: Its Potency is inconclusive [inhibitor, partial curve].

Question: Which Potency does the source give for O=C(COC(=O)c1ccco1)Nc1nnc(-c2ccccc2)o1 here?
Answer: The Potency was “inactive”.
